Reference: article PMC6756068, “The NF2 tumor suppressor merlin interacts with Ras and RasGAP, which may modulate Ras signaling” (Oncogene, 2019)
Numbering of substitutions follows the chain as printed. These are yes or no findings as the source states them, for the method shown. For some of these results: In cells and extracts the contact can be indirect. Some binding calls cover weakened binding; strength is not graded here. For some of these results: Tags and fused reporters may be left off the sequences shown. One block for each molecule: values may come before it.

Sequences of proteins named here, by UniProt entry; tags and fusion partners are left off. A change or cut given only in a name is not applied to a line headed by its entry. Residues count along the entry.
UniProt P35240: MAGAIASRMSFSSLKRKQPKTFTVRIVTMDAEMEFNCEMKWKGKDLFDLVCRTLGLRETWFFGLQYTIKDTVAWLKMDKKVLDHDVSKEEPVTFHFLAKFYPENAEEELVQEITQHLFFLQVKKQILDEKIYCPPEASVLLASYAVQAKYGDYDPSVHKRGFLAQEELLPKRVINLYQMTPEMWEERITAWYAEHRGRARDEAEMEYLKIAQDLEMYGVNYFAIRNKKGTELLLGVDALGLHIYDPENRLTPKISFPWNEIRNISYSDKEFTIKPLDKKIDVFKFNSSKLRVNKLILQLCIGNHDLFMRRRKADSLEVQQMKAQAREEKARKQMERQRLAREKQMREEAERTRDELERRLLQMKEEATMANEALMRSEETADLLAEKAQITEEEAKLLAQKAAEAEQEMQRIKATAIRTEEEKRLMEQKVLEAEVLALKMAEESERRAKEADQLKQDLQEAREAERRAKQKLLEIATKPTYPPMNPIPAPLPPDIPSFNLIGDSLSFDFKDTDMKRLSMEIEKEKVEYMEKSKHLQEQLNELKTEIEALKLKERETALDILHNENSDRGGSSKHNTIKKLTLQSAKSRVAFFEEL
GST-merlin FERM (aa 1–313): residues 1-313 of P35240
GST-merlin aa 1–73: residues 1-73 of P35240
GST-merlin α-helical-tail domains (aa 312–595): residues 312-595 of P35240

Assays:
GST-RasGAP aa 158–1047 = biological target: T1, GST-RasGAP aa 158–1047 (UniProt P20936); assay: far-Western, overlay or dot blot; purified merlin incubated with GST-RasGAP fragments immobilized on a nitrocellulose membrane; both purified
T1 sequence: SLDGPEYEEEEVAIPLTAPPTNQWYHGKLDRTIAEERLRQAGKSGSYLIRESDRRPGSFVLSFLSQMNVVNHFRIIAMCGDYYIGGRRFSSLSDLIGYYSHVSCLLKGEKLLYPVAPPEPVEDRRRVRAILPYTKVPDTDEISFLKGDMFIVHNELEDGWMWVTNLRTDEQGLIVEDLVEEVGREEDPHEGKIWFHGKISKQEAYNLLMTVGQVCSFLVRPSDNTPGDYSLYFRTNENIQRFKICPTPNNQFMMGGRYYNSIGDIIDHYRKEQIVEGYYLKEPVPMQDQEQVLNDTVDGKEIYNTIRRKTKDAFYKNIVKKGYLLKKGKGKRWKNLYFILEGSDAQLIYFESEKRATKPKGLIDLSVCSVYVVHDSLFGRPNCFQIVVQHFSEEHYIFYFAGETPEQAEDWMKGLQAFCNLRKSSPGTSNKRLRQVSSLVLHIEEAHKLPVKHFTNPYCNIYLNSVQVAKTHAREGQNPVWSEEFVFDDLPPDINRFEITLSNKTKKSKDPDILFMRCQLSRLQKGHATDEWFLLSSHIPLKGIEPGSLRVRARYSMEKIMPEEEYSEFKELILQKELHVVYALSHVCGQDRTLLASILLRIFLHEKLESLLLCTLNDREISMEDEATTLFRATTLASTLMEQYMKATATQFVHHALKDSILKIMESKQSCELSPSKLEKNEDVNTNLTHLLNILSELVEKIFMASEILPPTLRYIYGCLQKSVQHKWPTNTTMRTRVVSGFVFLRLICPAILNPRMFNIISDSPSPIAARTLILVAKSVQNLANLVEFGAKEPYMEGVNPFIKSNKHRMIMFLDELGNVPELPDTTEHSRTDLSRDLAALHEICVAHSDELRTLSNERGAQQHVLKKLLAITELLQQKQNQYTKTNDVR

[1] = biological target: T2, GST-RasGAP aa 158–1047 C540Y (UniProt P20936); assay: as above
T2 sequence: T1 sequence with C383Y

[2] = biological target: T3, GST-RasGAP partial C2 domain (aa 606–648) (UniProt P20936); assay: as above
T3 sequence: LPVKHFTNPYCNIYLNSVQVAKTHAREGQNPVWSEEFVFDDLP

[3] = biological target: GST-merlin FERM (aa 1–313) (UniProt P35240); assay: pull-down; GST-merlin fragments pull down RasGAP from Sc4 cell lysate; western blot; only the target purified
GST-merlin aa 1–18 = GST-merlin aa 1–18 (UniProt P35240); assay: as above
GST-merlin aa 1–73 = GST-merlin aa 1–73 (UniProt P35240); assay: as above
[4] = biological target: GST-merlin α-helical-tail domains (aa 312–595) (UniProt P35240); assay: as above

binding (GST-RasGAP aa 158–1047): binds
binding [1]: binds
binding [2]: no binding
Molecule: purified merlin (far-western) (from UniProt P35240 1-595)

binding [3]: binds
binding (GST-merlin aa 1–18): no binding
binding (GST-merlin aa 1–73): binds
binding [4]: binds
B1: RasGAP of Sc4 cells (protein, UniProt E9PYG6 1-1038)
chain: MMAAEAGSEEGGPATAGPGGGAATGSSAYSAACRVKLPAALPVAAAPCPGLADADLVAALGGGAASGSGFLGTGPVAGVLGGAALTGSAAAGVAGAAAAGPAGDVAFTKGTLSLPAETLGPGGGFPPLPPPPQLPPLGSGLGTVDEGDSLDGPEYEEEEVAIPLTAPPTNQWYHGKLDRTIAEERLRQAGKSGSYLIRESDRRPGSFVLSFLSQTNVVNHFRIIAMCGDYYIGGRRFSSLSDLIGYYSHVSCLLKGEKLLYPVAPPEPVEDRRRVRAILPYTKVPDTDEISFLKGDMFIVHNELEDGWMWVTNLRTDEQGLIVEDLVEEVGREEDPHEGKIWFHGKISKQEAYNLLMTVGQVCSFLVRPSDNTPGDYSLYFRTNENIQRFKICPTPNNQFMMGGRYYNSIGDIIDHYRKEQIVEGYYLKEPVPMQDQGQVLNDTVDGKEIYNTIRRKTKDAFYKNIVKKGYLLKKGKGKRWKNLYFILEGSDAQLIYFESEKRATKPKGLIDLSVCSVYVVHDSLFGRPNCFQIVVQHFSEEHYIFYFAGETPEQAEDWMKGLQAFCSLRKSSPGTSNKRLRQVSSLVLHIEEAHKLPVKHFTNPYCNIYLNSVQVAKTHAREGQNPVWSEEFVFDDLPPDINRFEITLSNKTKKSKDPDILFMRCQLSRLQKGHATDEWFLLSSHIPLKGIEPGSLRVRARYSMEKIMPEEEYSEFKELILQKELHVVYALSHVCGQDRTLLASILLKIFLHEKLESLLLCTLNDREISMEDEATTLFRATTLASTLMEQYMKATATQFVHHALKDSILKIMESKQSCELSPSKLEKNEDVNTNLAHLLSILSELVEKIFMASEILPPTLRYIYGCLQKSVQHKWPTNNTMRTRVVSGFVFLRLICPAILNPRMFNIISDSPSPIAARTLTLVAKSVQNLANLVEFGAKEPYMEGVNPFIKSNKHRMIMFLDELGNVPELPDTTEHSRTDLSRDLAALHEICVAHSDELRTLSNERGVQQHVLKKLLAITELLQQKQNQYTKTNDIR
